Several values for one entry are separate records, joined by “and”; a condition that tells them apart may be missing. Equal values may be shown once. Some of the results follow. The main result of the screen is listed elsewhere. These columns were measured beside it and carry no call.
What was measured:
Assay in all cases: Primary Screen for Target Class Profiling of Small Molecule Inhibitors of Methyltransferases
[1] = target: Glycine N-methyltransferase (Homo sapiens) (UniProt Q14749); settings: purified enzyme, MTase-Glo SAH luminescence; measured here: GNMT inhibition; at 40 µM; stronger effect = lower value
Outline: (§1)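 Each enzyme was assayed with SAM and its substrate. SAH formation detected by MTase-Glo luminescence; single-point 40 uM screen[…].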

[2] = target: Guanidinoacetate N-methyltransferase (Homo sapiens) (UniProt Q14353); settings: purified enzyme, MTase-Glo SAH luminescence; measured here: GAMT inhibition; at 40 µM; stronger effect = lower value
Outline: as §1

[3] = target: Histamine N-methyltransferase (Homo sapiens) (UniProt P50135); settings: purified enzyme, MTase-Glo SAH luminescence; measured here: HNMT inhibition; at 40 µM; stronger effect = lower value
Outline: as §1

[4] = target: Nicotinamide N-methyltransferase (Homo sapiens) (UniProt P40261); settings: purified enzyme, MTase-Glo SAH luminescence; measured here: NNMT inhibition; at 40 µM; stronger effect = lower value
Outline: as §1

[5] = target: Phenylethanolamine N-methyltransferase (Homo sapiens) (UniProt P11086); settings: purified enzyme, MTase-Glo SAH luminescence; measured here: PNMT inhibition; at 40 µM; stronger effect = lower value
Outline: as §1
% is scaled to controls: 0 for no effect and ±100 for the full control effect.

SMILES | activity change, negative = inhibition [1] | activity change, negative = inhibition [2] | activity change, negative = inhibition [3] | activity change, negative = inhibition [4] | activity change, negative = inhibition [5]
O=C(CC1CCOCC1)Nc1ccc(N2CCOCC2)cc1 | 1.76% | -0.854% | 2.26% | 0.692% | -3.82%
C=C1C(=O)OC2CC3(C)C(O)C(=O)C=C(C)C3CC12 (stereo not given) | -3.29% | 4.64% | 6.43% | -6.51% | 7.95%
COc1ccccc1CNC(=O)C1(C)Cn2c(cc3ccccc32)C(=O)N1Cc1ccccc1Cl (stereo not given) | -6.07% | -0.612% | -9.04% | -15.3% | -9.37%
CC(C)=CCC[C@](C)(O)[C@H]1CC[C@]2(C)[C@@H]1[C@H](O)CC1[C@@]3(C)CC[C@H](O)C(C)(C)C3[C@@H](O[C@@H]3O[C@H](CO)[C@@H](O)[C@H](O)[C@H]3O[C@@H]3OC[C@@H](O)[C@H](O)[C@H]3O)C[C@]12C (stereo not given in full) | 4.69% | 4.76% | 10.3% | -7.06% | 2.04%
CN1C(=O)c2cc(C(=O)NCCCN3CCCCC3)nn2CC1(C)C(=O)NCc1ccccc1 (stereo not given) | 5.59% | 1.82% | 1.83% | 5.54% | 4.19%
COc1cccc(CN2C(=O)c3cc(-c4ccco4)nn3CC2(C)C(=O)NC2CCCCCC2)c1 (stereo not given) | -3.73% | 2.45% | -2.88% | -13.9% | -6.47%
COc1cccc(N2C(=O)c3cc4sccc4n3CC2(C)C(=O)NC2CCCCCC2)c1 (stereo not given) | 1.52% | -1.83% | 3.9% | -2.23% | 0.007%
CC(NC(=O)C1CCCN(c2cnc3nccnc3c2)C1)c1cccnc1 (stereo not given) | -6.83% | -5.48% | -4.43% | -16.4% | -5.46%
CCNC(=O)Nc1ccc(OCC(=O)N2CCN(c3ccccn3)CC2)nc1 | -3.92% | 2.68% | 0.693% | -2.64% | 9.96%
CC(=O)Nc1ccccc1NC(=O)CN1CCN(Cc2ncccc2C)CC1 | -4.21% | -10.2% | -3.13% | -7.56% | -0.109%
COCc1ncc(C)n1C1CCCN(C(=O)CCCc2ccccc2)C1 (stereo not given) | -3.42% | -1.94% | -1.3% | -3.95% | 3.12%
CC1CCCC(O)CCC/C=C/c2cc(OS(=O)(=O)O)cc(O)c2C(=O)O1 (stereo not given) | -36.5% | -5.74% | -45.4% | -18.9% | -17.9%
COCCNC(=O)c1cc2n(n1)CC(C)(C(=O)NCc1ccccc1)N(C)C2=O (stereo not given) | 3.66% | 3.88% | -1.83% | 4.51% | -0.932%
Cc1ccc(Cl)cc1NC(=O)Cn1nc2n(CC(C)C)c(=O)c3ccccc3n2c1=O | -4.11% | 1.29% | -1.52% | -8.33% | -6.1%
CC(=O)NC1CC2(CCN(Cc3ccc(O)cc3)CC2)c2ccccc21 (stereo not given) | -6.55% | -6.36% | -51.9% | -13.6% | -13.2%
COc1ccc(C2(N(C)C(=O)c3ccc(NC(=O)c4ccco4)cc3)CCOCC2)cc1 | -6.24% | -10.3% | 1.53% | -23.4% | -14.8%
Cc1ccc(Cn2c(=O)c3ccccc3n3c(CCC(=O)NCCCOC(C)C)nnc23)cc1 | -5.85% | 4.47% | 3.08% | 9.06% | -4.22%
CCCn1c(=O)c2ccc(Cl)cc2n2c(=O)n(CC(=O)Nc3ccc(C)cc3Cl)nc12 | -0.172% | 0.445% | 0.703% | -5.08% | -3.28%
O=C(NCCO)c1cccc(-c2cc(Nc3ccc(OC(F)(F)F)cc3)ncn2)c1 | -7.21% | 10.2% | 0.046% | -20.1% | -11.1%

SMILES | activity change, negative = inhibition [1] | activity change, negative = inhibition [2] | activity change, negative = inhibition [3] | activity change, negative = inhibition [4] | activity change, negative = inhibition [5]
Cc1ccc(NC(=O)CN(C)S(=O)(=O)c2ccc3[nH]c4c(c3c2)CCCC4)nc1 | -2.5% | -1.55% | -3.95% | -7.25% | -7.34%
CCOC(=O)C1CCN(C(=O)CN(C)S(=O)(=O)c2ccc3c(c2)CC(C)N3C(C)=O)CC1 (stereo not given) | 3.92% | 3.81% | 3.58% | -0.659% | 0.392%
CCCCN(C)C(=O)c1c(C)sc2ccn(CCC)c(=O)c12 | -74.9% | -36.9% | -0.372% | -7.08% | -18.3%
Cc1cc2c(cc1S(=O)(=O)NCc1ccc(F)cc1)n(C)c(=O)n2C | 7.02% | 0% | 4.04% | 2.78% | 4.18%
CC(C)CCNC(=O)C1(C)Cn2nc(C(=O)NC3CCCC3)cc2C(=O)N1C (stereo not given) | 3.39% | 0% | 5.54% | 6.59% | 4.51%
CC1(C(=O)NC2CCCCCCC2)Cn2c(ccc2-c2ccco2)C(=O)N1Cc1cccc(Cl)c1 (stereo not given) | -1.47% | 0% | 1.88% | -10.1% | -1.75%
COc1cccc(NC(=O)CSc2nnc3[nH]c(=O)c(C)nn23)c1 | 12.7% | 0% | 10.1% | 2.89% | 5.48%
CN(C)C(=O)[C@]12CCCC[C@@H]1N(CCc1ccccc1)C(=O)CC2 | -1.49% | -3.2% | -1.35% | -4.49% | -2.26%
Cc1ccnn1CCC(=O)N1CCOC(Cc2ccc(F)cc2)C1 (stereo not given) | -0.333% | -2.3% | 2.17% | 2.48% | 3.37%
Nc1ncnc2c1c(-c1ccc(Oc3ccccc3)cc1)cn2C1CCCC1 | -16.5% | -3.23% and 11% | -12.4% | -37.5% and -33.6% | -33.5% and -33.8%
COc1cccc(N2CCN(C(=O)CCn3ccn4nc5c(c4c3=O)CCCC5)CC2)c1 | -3.1% | 0.663% | -2.84% | -5.54% | 4.07%
Cc1ccc(CNC(=O)C2(C)Cn3cnc(C(=O)NCc4ccccc4Cl)c3C(=O)N2C2CC2)cc1 (stereo not given) | -5.21% | 0% | 3.67% | -8.95% | -1.19%
CCOC(=O)c1cc2n(n1)CC(C)(C(=O)NC1CCC(C)CC1)N(c1ccc(C)cc1C)C2=O (stereo not given) | 7.48% | 0% | 8.04% | 2.89% | 3.78%
COc1ccccc1Nc1ncc2c(n1)CN(C(=O)c1ccnn1C)CCN2 | -5.96% | -6.02% | -2.91% | -8.87% | -4.03%
O=C(CCCn1nc(-c2ccccc2)c2ccccc21)N1CCN(c2ccccc2)CC1 | -1.44% | 5.52% | 3.69% | 3.65% | -0.994%
COCCCN1C(=O)c2ccc(-c3ccco3)n2CC1(C)C(=O)NC1CCCCC1C (stereo not given) | 3.86% | 0.182% | 3.34% | 5.71% | 2.51%
O=C(CCl)N1CCC2(CC1)CC(c1cccc(C(F)(F)F)c1)=NO2 | -6.43% | -4.53% | -0.579% | -12.5% | -21%
CCn1nccc1C(=O)N1CC[C@@H]2CN(Cc3ccccc3)[C@@H]2C1 | -0.446% | -3.76% | -0.438% | -5.14% | -8.21%
CC(C)CNC(=O)c1ccc2c(=O)n(Cc3ccccc3)c3nn(CC(=O)NC(C)(C)C)c(=O)n3c2c1 | 2.93% | 4.43% | 4.66% | 0.972% | 3.27%
